# Data reported in the supplement of paper PMC12217912.
# Some of the results follow. Sequences were assembled here from the parent chain. Inactive controls read about 0.05.
# B1: TEV protease; numbered along this chain (parent)
# chain: MGESLFKGPRDYNPISSSICHLTNESDGHTTSLYGIGFGPFIITNKHLFRRNNGTLVVQSLHGVFKVKDTTTLQQHLVDGRDMIIIRMPKDFPPFPQKLKFREPQREERICLVTTNFQTKSMSSMVSDTSCTFPSGDGIFWKHWIQTKDGQCGSPLVSTRDGFIVGIHSASNFTNTNNYFTSVPKNFMELLTNQEAQQWVSGWRLNADSVLWGGHKVFMVKPEEPFQPVKEATQL
# Variants of: B1
# Test: raw area under fraction-flipped curve 0-4 h after induction (AUC4h, not background-subtracted), DNA-recorder readout of cleavage of the substrate (dimensionless); higher = more cleavage of the substrate by the protease variant
# Conditions: temperature: 34 °C; time window: 0-4 h after rhamnose induction
# Procedure: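 In vivo DNA recorder in E. coli TOP10(DE3) ΔrhaA at 34 °C. Each TEVp single-site mutant (parent TEVp 0) is paired with a single-site variant of the 7-mer TEVs (canonical ENLYFQ|S). The substrate sits between flexible linkers in a Bxb1-sfGFP-TEVs-SsrA fusion, so cleavage stabilises Bxb1 and speeds flipping of a recombination array, read by NGS. The value is the raw area under the fraction-flipped curve over 0-4 h after rhamnose induction (AUC4h), with ≥20 reads per time point. It is not background-subtracted; inactive controls average about 0.047.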
# 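Also: Bxb1 expression induced with 0.2% (w/v) L-rhamnose at OD600 near 0.5, cultures sampled hourly, flipped fraction per protease–substrate barcode pair counted by paired-end Illumina sequencing.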
Variant,area with substrate ENLYFCS,area with substrate ENLYFDS,area with substrate ENLYFFS,area with substrate ENLYFHS,area with substrate ENLYFIS,area with substrate ENLYFMS,area with substrate ENLYFNS,area with substrate ENLYFPS,area with substrate ENLYFRS,area with substrate ENLYFES
T181E,0.0994,0.0499,0.0449,0.0566,0.0459,0.0548,0.0581,0.0624,0.0998,
F187G,0.0589,,0.0726,,0.0515,0.0525,0.0686,0.043,,0.0594
P228Y,0.06,,,0.0393,0.0477,0.061,,0.0378,,0.0918
S60W,,0.0643,0.0669,0.0486,0.0423,0.0449,0.0623,0.0597,,0.0571
K66Q,,0.0501,0.0691,,0.0645,0.0693,,,,
K66A,0.0666,,,,,,,0.0586,,
K66H,0.055,,0.0548,,0.0495,0.0721,0.0875,0.0395,,
Q97L,,0.0568,,,0.0508,0.0525,0.0376,0.0687,,
T174G,,0.0582,0.0612,,0.0474,,0.0692,0.0686,0.0362,0.0634
R204P,,0.0945,,,,0.0609,0.071,,,
F226V,,0.0517,0.0446,,,,,,,
P89C,0.0324,,,,,,,0.0611,,0.0594
Q194W,0.065,,0.0859,,0.0306,,0.0608,0.0524,,
N53L,,0.0555,,,0.0439,,0.067,0.0648,0.0529,
I139T,0.083,,,,,,,,,0.0569
N45G,0.0524,0.0687,0.0782,0.0565,0.0564,0.063,0.0495,0.0411,,0.0556
N116F,,0.0161,,,0.0618,0.0574,0.0697,0.0448,0.0637,0.0523
K148L,,0.0639,0.0549,,0.0394,0.0741,,,,0.0438
S182C,0.0577,,0.0596,,0.0534,0.0432,,0.0643,0.0592,0.0603
C111A,0.0551,,,,0.0625,,,0.0614,,0.0757
F163K,,0.0643,,,0.0433,,,0.0608,,0.0665

Variant,area with substrate ENLYFCS,area with substrate ENLYFDS,area with substrate ENLYFFS,area with substrate ENLYFHS,area with substrate ENLYFIS,area with substrate ENLYFMS,area with substrate ENLYFNS,area with substrate ENLYFPS,area with substrate ENLYFRS,area with substrate ENLYFES
F6T,0.059,,,,0.0667,0.0612,,0.0664,,0.0757
N177M,,0.0652,,,0.0682,0.0475,0.0409,0.0634,,
K142N,0.0608,0.0581,0.0731,,0.0579,0.0814,,0.0968,,0.0642
C131H,0.0643,,0.0564,,0.0495,,0.0587,,,0.09
T159V,0.072,,,0.0383,,,,0.077,,
A170Q,,0.0614,,,0.0593,,,0.0366,,0.0635
E3D,0.0452,,,0.0792,,0.0645,0.0658,0.0372,,0.112
V113K,0.0566,,0.0613,0.06,0.0487,,,0.0588,0.041,
V113Y,,0.0447,0.0076,0.0145,0.0527,0.0661,,0.0606,,0.0522
F92L,,0.0656,0.066,0.0521,0.0838,,0.0587,0.0708,,0.0887
G153T,,0.0392,,,0.0492,0.0479,,0.0407,0.0445,0.0626
R81V,0.0681,,0.0701,,0.0553,,,,,
T119Q,,0.0479,,,0.045,,0.0941,,,
T119C,0.0598,,,0.0695,0.0449,,0.0556,0.0698,,0.0502
F173T,0.0652,,0.0769,0.0817,0.0647,0.0674,,0.0632,,0.06
R51H,,0.0533,,,,,,,,
N178R,,0.0672,,,0.0051,0.0573,0.0862,0.0679,,0.0542
P93D,,0.0861,0.0924,0.0547,0.0566,0.0579,,,0.0572,0.0626
G2I,,0.0479,0.0703,0.0524,0.0533,,0.0607,,,0.0682
R109K,0.0604,,,0.0774,0.0547,0.0441,0.0617,0.0658,,0.0578

# Same assay, conditions: temperature: 34 °C; time window: 0-4 h after rhamnose induction
Variant,area with substrate ENLYFGS,area with substrate ENLYFKS,area with substrate ENLYFLS,area with substrate ENLYFSS,area with substrate ENLYFTS,area with substrate ENLYFWS,area with substrate ENLYFYS,area with substrate ENLYFVS
F187G,0.0445,0.0526,0.0518,0.0574,0.0471,0.0611,0.0603,
P228Y,,,,0.0695,,0.0443,,
S60W,,0.0657,,,0.0568,,0.0591,0.0396
K66Q,0.0599,,,,0.0559,,,
K66A,0.0562,,,,0.0552,,,
K66H,0.0616,,,,0.0434,,0.0707,
T174G,0.058,,,0.0702,0.0523,0.0721,,
F226V,,0.056,,0.0691,0.0621,0.0443,0.0532,
P89C,0.0635,,,,,,,
Q194W,,,,,0.0636,,,
N53L,,,,,0.0784,0.0541,,0.0734
I139T,,0.0404,,0.0678,,,,
N45G,0.0696,0.0603,0.0441,0.0553,0.0603,,,0.0494
N116F,,0.0817,,0.0636,0.0793,0.0631,,0.0573
K148L,0.0489,,,0.0643,0.0518,0.0557,0.0568,
S182C,,,,,0.0594,0.0598,,0.0462
C111A,,,,,0.0604,0.0422,,0.0441
F163K,,,0.0746,,0.077,,,

Variant,area with substrate ENLYFGS,area with substrate ENLYFKS,area with substrate ENLYFLS,area with substrate ENLYFSS,area with substrate ENLYFTS,area with substrate ENLYFWS,area with substrate ENLYFYS,area with substrate ENLYFVS
F6T,0.0551,,,,,0.0802,,
N177M,,0.0573,,0.0641,,0.072,0.0604,0.0626
K142N,,0.0708,,0.071,0.0617,,,
C131H,,,0.0653,0.0748,0.0537,,,
T159V,,,,,,,,0.0612
E3D,,0.0546,,,,,0.0486,0.0583
V113K,0.0447,,,0.0537,0.0573,,,0.0622
V113Y,,0.0421,0.115,,0.0795,,0.0549,
F92L,0.0512,0.0724,0.0525,0.049,0.065,,,
G153T,,0.0376,0.0435,,0.0475,,0.0417,
R81V,,,,,0.0555,0.0575,0.0691,
T119Q,,,,,,,0.0403,
F173T,,0.0723,0.0552,0.0462,0.0567,0.0616,,
N178R,0.0593,,,,,,,
P93D,,,,0.0458,,0.0421,,
G2I,,,,0.0491,0.0573,0.0428,,
R109K,0.0595,,,,0.0409,,,0.0569
